According to patent publication US20260263442A1, “METHOD FOR TREATING L-DOPA-INDUCED DYSKINESIA USING BEFIRADOL” (Neurolixis, Inc., priority 2023, published 2026):

Test system: patients with moderate to severe L-DOPA-induced dyskinesia (LID) in Parkinson's disease
Experiment: Adverse events, Phase 2a study of NLX-112 versus placebo

Cc1ccc(CNCC2(F)CCN(C(=O)c3ccc(F)c(Cl)c3)CC2)nc1 [NLX-112]
1 (6.7) n (%): AE causality: Probably Related, subjects n (%) (steady state, N = 15)
11: Any AE, events m (steady state, N = 15)
33: AE causality: Possibly Related, events m (up-titration, N = 18)
35: AE severity: Mild, events m (up-titration, N = 18)
30: AE action: Dose Not Changed, events m (up-titration, N = 18)
5: AE severity: Mild, events m (steady state, N = 15)
3 (20) n (%): AE causality: Unlikely Related, subjects n (%) (steady state, N = 15)
10 (56) n (%): AE action: Dose Not Changed, subjects n (%) (up-titration, N = 18) | AE causality: Unlikely Related, subjects n (%) (up-titration, N = 18)
52: Any AE, events m (up-titration, N = 18)
17: AE causality: Unlikely Related, events m (up-titration, N = 18) | AE severity: Moderate, events m (up-titration, N = 18)
safe and well tolerated: Overall safety and tolerability (up to 2 mg/day, 8 weeks, PD patients with LID)
4 (27) n (%): AE severity: Mild, subjects n (%) (steady state, N = 15) | AE severity: Moderate, subjects n (%) (steady state, N = 15)
0 n (%): AE severity: Death, subjects n (%) (steady state, N = 15) | AE severity: Life-Threatening, subjects n (%) (steady state, N = 15) | AE severity: Severe, subjects n (%) (steady state, N = 15) | Any AE leading to WFS, subjects n (%) (steady state, N = 15) | Any AE leading to death, subjects n (%) (steady state, N = 15) | Any SAE, subjects n (%) (steady state, N = 15) | SAE: CA or BD, subjects n (%) (steady state, N = 15) | SAE: ILT, subjects n (%) (steady state, N = 15) | SAE: OMISE, subjects n (%) (steady state, N = 15) | SAE: PSD/I, subjects n (%) (steady state, N = 15) | SAE: RPH, subjects n (%) (steady state, N = 15) | AE action: Drug Interrupted, subjects n (%) (up-titration, N = 18) | AE severity: Death, subjects n (%) (up-titration, N = 18) | AE severity: Life-Threatening, subjects n (%) (up-titration, N = 18) | AE severity: Severe, subjects n (%) (up-titration, N = 18) | Any AE leading to death, subjects n (%) (up-titration, N = 18) | Any SAE, subjects n (%) (up-titration, N = 18) | Orthostatic hypotension, subjects n (%) (up-titration, N = 18) | SAE: CA or BD, subjects n (%) (up-titration, N = 18) | SAE: ILT, subjects n (%) (up-titration, N = 18) | SAE: OMISE, subjects n (%) (up-titration, N = 18) | SAE: PSD/I, subjects n (%) (up-titration, N = 18) | SAE: RPH, subjects n (%) (up-titration, N = 18)
0: AE severity: Death, events m (steady state, N = 15) | AE severity: Life-Threatening, events m (steady state, N = 15) | AE severity: Severe, events m (steady state, N = 15) | Any AE leading to WFS, events m (steady state, N = 15) | Any AE leading to death, events m (steady state, N = 15) | Any SAE, events m (steady state, N = 15) | SAE: CA or BD, events m (steady state, N = 15) | SAE: ILT, events m (steady state, N = 15) | SAE: OMISE, events m (steady state, N = 15) | SAE: PSD/I, events m (steady state, N = 15) | SAE: RPH, events m (steady state, N = 15) | AE action: Drug Interrupted, events m (up-titration, N = 18) | AE severity: Death, events m (up-titration, N = 18) | AE severity: Life-Threatening, events m (up-titration, N = 18) | AE severity: Severe, events m (up-titration, N = 18) | Any AE leading to death, events m (up-titration, N = 18) | Any SAE, events m (up-titration, N = 18) | Orthostatic hypotension, events m (up-titration, N = 18) | SAE: CA or BD, events m (up-titration, N = 18) | SAE: ILT, events m (up-titration, N = 18) | SAE: OMISE, events m (up-titration, N = 18) | SAE: PSD/I, events m (up-titration, N = 18) | SAE: RPH, events m (up-titration, N = 18)
1 (5.6) n (%): Any AE leading to WFS, subjects n (%) (up-titration, N = 18) | Back pain, subjects n (%) (up-titration, N = 18) | Dissociation, subjects n (%) (up-titration, N = 18) | Fall, subjects n (%) (up-titration, N = 18) | Fatigue, subjects n (%) (up-titration, N = 18) | Insomnia, subjects n (%) (up-titration, N = 18) | Restless legs syndrome, subjects n (%) (up-titration, N = 18)
11 (61) n (%): AE causality: Possibly Related, subjects n (%) (up-titration, N = 18) | AE severity: Mild, subjects n (%) (up-titration, N = 18)
2: AE causality: Probably Related, events m (up-titration, N = 18) | Dizziness, events m (up-titration, N = 18) | Dyskinesia, events m (up-titration, N = 18) | Fall, events m (up-titration, N = 18) | Headache, events m (up-titration, N = 18) | Nausea, events m (up-titration, N = 18) | Vertigo, events m (up-titration, N = 18) | Vomiting, events m (up-titration, N = 18)
5 (33) n (%): AE causality: Possibly Related, subjects n (%) (steady state, N = 15)
3: AE causality: Unlikely Related, events m (steady state, N = 15) | Any AE leading to WFS, events m (up-titration, N = 18) | Parkinsonism, events m (up-titration, N = 18)
14 (78) n (%): Any AE, subjects n (%) (up-titration, N = 18)
1: AE causality: Probably Related, events m (steady state, N = 15) | Back pain, events m (up-titration, N = 18) | Dissociation, events m (up-titration, N = 18) | Fatigue, events m (up-titration, N = 18) | Insomnia, events m (up-titration, N = 18) | Restless legs syndrome, events m (up-titration, N = 18)
2 (11) n (%): AE causality: Probably Related, subjects n (%) (up-titration, N = 18) | Dizziness, subjects n (%) (up-titration, N = 18) | Dyskinesia, subjects n (%) (up-titration, N = 18) | Headache, subjects n (%) (up-titration, N = 18) | Nausea, subjects n (%) (up-titration, N = 18) | Vertigo, subjects n (%) (up-titration, N = 18) | Vomiting, subjects n (%) (up-titration, N = 18)
9: AE action: Not Applicable, events m (up-titration, N = 18)
6: AE severity: Moderate, events m (steady state, N = 15)
5 (28) n (%): AE action: Not Applicable, subjects n (%) (up-titration, N = 18)
3 (17) n (%): AE action: Dose Reduced, subjects n (%) (up-titration, N = 18) | Parkinsonism, subjects n (%) (up-titration, N = 18)
7 (39) n (%): AE severity: Moderate, subjects n (%) (up-titration, N = 18)
8 (53) n (%): Any AE, subjects n (%) (steady state, N = 15)
13: AE action: Dose Reduced, events m (up-titration, N = 18)
